From the BET-seq Pho4 binding data (Le et al. 2018) come the findings set out here.

The other results are listed elsewhere or left out. Values were computed here from the reads of four pooled replicates and scatter widely.

This test addresses T1, Pho4 (S. cerevisiae) (UniProt P07270).
T1 sequence: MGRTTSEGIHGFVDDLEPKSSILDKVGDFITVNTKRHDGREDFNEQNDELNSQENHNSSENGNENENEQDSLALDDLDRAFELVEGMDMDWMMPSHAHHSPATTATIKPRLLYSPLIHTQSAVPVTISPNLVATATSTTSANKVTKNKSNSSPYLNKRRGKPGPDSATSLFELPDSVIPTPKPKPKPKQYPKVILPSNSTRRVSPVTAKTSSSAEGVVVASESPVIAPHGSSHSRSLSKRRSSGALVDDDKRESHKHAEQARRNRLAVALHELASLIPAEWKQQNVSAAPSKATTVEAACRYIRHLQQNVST
The test is described as follows: relative binding free energy (BET-seq); higher = weaker binding. The conditions noted are these: reference: library average.
TCTTGCACGTGAGGGC: the “relative binding free energy” value amounted to 0.795 kJ/mol.

As for ATCGTCACGTGTTTAT, the “relative binding free energy” value is 0.167 kJ/mol.

Regarding GAGTTCACGTGTTGCA, the “relative binding free energy” value was determined as 1.05 kJ/mol.

On to GAGTTCACGTGTAAAT, for which the “relative binding free energy” value came to 2.05 kJ/mol.

On to TGGATCACGTGGCTTG, for which the “relative binding free energy” value was -0.46 kJ/mol.

Regarding CGTTACACGTGAGTGG, the “relative binding free energy” value was 1.09 kJ/mol.

On to TTTGTCACGTGTTTCT, for which the “relative binding free energy” value was 0.628 kJ/mol.

GTGGGCACGTGAAATA: the “relative binding free energy” value was 0.711 kJ/mol.

As to AGATGCACGTGAGGAT, the “relative binding free energy” value was determined as 0.502 kJ/mol.

Take GTAGTCACGTGTTGCG: the “relative binding free energy” value was 1.13 kJ/mol.

On to TTATTCACGTGAAGAG, for which the “relative binding free energy” value is 0.962 kJ/mol.

For the sequence TTCTCCACGTGTTGGT, the “relative binding free energy” value was -0.377 kJ/mol.

Consider GTAGACACGTGATTTG, for which the “relative binding free energy” value stood at 0.251 kJ/mol.

Turning to GTTAGCACGTGCTCGG, the “relative binding free energy” value was -0.418 kJ/mol.

For ATGTGCACGTGCTCTG, the “relative binding free energy” value was -0.293 kJ/mol.

For the sequence TTAGCCACGTGGTGTT, the “relative binding free energy” value is -0.209 kJ/mol.

Consider GTAGGCACGTGCGTGA, for which the “relative binding free energy” value was -0.879 kJ/mol.

Regarding ACGAGCACGTGGGGCG, the “relative binding free energy” value was -1.26 kJ/mol.

Turning to ATTAGCACGTGAGGGG, the “relative binding free energy” value was determined as 0.669 kJ/mol.

In the case of GAAGTCACGTGGGTAG, the “relative binding free energy” value turned out to be 0.502 kJ/mol.

In the case of TGCATCACGTGTGGCT, the “relative binding free energy” value is 0.711 kJ/mol.

Turning to AAGTACACGTGTCGTT, the “relative binding free energy” value came to 0.669 kJ/mol.

Take AAGGGCACGTGGGGGC: the “relative binding free energy” value was -0.669 kJ/mol.

As to CTTGACACGTGGTGAG, the “relative binding free energy” value came to 0.251 kJ/mol.

On to AGGGTCACGTGTAACG, for which the “relative binding free energy” value came to 0.418 kJ/mol.

On to AGAGACACGTGAGGGT, for which the “relative binding free energy” value turned out to be 0.46 kJ/mol.

As for AGTGCCACGTGGGGTC, the “relative binding free energy” value was -1.72 kJ/mol.

As for GTTAACACGTGATGGA, the “relative binding free energy” value was determined as 0.335 kJ/mol.

Turning to TGTACCACGTGTGAAT, the “relative binding free energy” value was 0.795 kJ/mol.

For the sequence AGGCTCACGTGGATGA, the “relative binding free energy” value is 1.42 kJ/mol.

Consider GGCAACACGTGGTGTG, for which the “relative binding free energy” value amounted to 0.0837 kJ/mol.

For TCGTACACGTGCGGGT, the “relative binding free energy” value was 0.126 kJ/mol.

As for GAGTGCACGTGTGTAT, the “relative binding free energy” value was -0.126 kJ/mol.

Regarding TATACCACGTGTTTGT, the “relative binding free energy” value was -0.0837 kJ/mol.

Take GGGAACACGTGGTTAG: the “relative binding free energy” value turned out to be 0.293 kJ/mol.

For GGGGTCACGTGCGTAT, the “relative binding free energy” value is -0.209 kJ/mol.

On to GGTACCACGTGGTTTT, for which the “relative binding free energy” value amounted to 0.544 kJ/mol.

With TGTTGCACGTGGCCGG, the “relative binding free energy” value was -0.753 kJ/mol.

On to GGTGTCACGTGGCGTC, for which the “relative binding free energy” value is -0.628 kJ/mol.

As to AGTAGCACGTGCGTAT, the “relative binding free energy” value was -0.711 kJ/mol.

For the sequence AAAGGCACGTGAAGAT, the “relative binding free energy” value was found to be 0.753 kJ/mol.

In the case of TATTGCACGTGTCTGT, the “relative binding free energy” value is 0.0837 kJ/mol.

Take TCGGGCACGTGATGGT: the “relative binding free energy” value came to 0.502 kJ/mol.

As for CGGTTCACGTGTAATT, the “relative binding free energy” value worked out at 1.09 kJ/mol.

In the case of TTCGCCACGTGGGTTT, the “relative binding free energy” value is -0.335 kJ/mol.

Regarding TGAGGCACGTGATTGT, the “relative binding free energy” value is -0.167 kJ/mol.

For the sequence ATCGTCACGTGTGGTT, the “relative binding free energy” value is 0.251 kJ/mol.

On to CAGTGCACGTGGGTTG, for which the “relative binding free energy” value was -0.502 kJ/mol.

Take GGGATCACGTGATTAA: the “relative binding free energy” value amounted to 1.72 kJ/mol.

Regarding ATAGTCACGTGGATAT, the “relative binding free energy” value was 0.335 kJ/mol.

In the case of GCGGGCACGTGCTGTG, the “relative binding free energy” value was -0.335 kJ/mol.

Take GTATTCACGTGCATTT: the “relative binding free energy” value is 1.55 kJ/mol.

In the case of TGCTACACGTGTTAAG, the “relative binding free energy” value was 1.05 kJ/mol.

Take TGCTGCACGTGTAAGT: the “relative binding free energy” value was found to be 0.628 kJ/mol.

For the sequence GTTGACACGTGGTAGG, the “relative binding free energy” value was found to be 0 kJ/mol.

Consider TAAAACACGTGTGGTT, for which the “relative binding free energy” value was determined as 0.837 kJ/mol.

Regarding TATGTCACGTGGGGCT, the “relative binding free energy” value was -0.0837 kJ/mol.

With GTATTCACGTGCTTAT, the “relative binding free energy” value came out at 0.962 kJ/mol.

For CGTTGCACGTGATTGT, the “relative binding free energy” value is 0.167 kJ/mol.

CTATGCACGTGATTGT: the “relative binding free energy” value came to 0 kJ/mol.

For TTAAACACGTGTTTTT, the “relative binding free energy” value was determined as 0.126 kJ/mol.

As to AGTGGCACGTGGTGGG, the “relative binding free energy” value is -0.335 kJ/mol.

As to ATTCTCACGTGTTCGT, the “relative binding free energy” value was 0.753 kJ/mol.

Regarding AAAGGCACGTGTAAGT, the “relative binding free energy” value is 0 kJ/mol.

For the sequence TATGACACGTGAAAGT, the “relative binding free energy” value worked out at 1.34 kJ/mol.

Regarding CGTAGCACGTGTGGGC, the “relative binding free energy” value is -0.377 kJ/mol.

In the case of ATTGACACGTGTGGTG, the “relative binding free energy” value was -0.126 kJ/mol.

On to CGGGGCACGTGGCGTG, for which the “relative binding free energy” value was -0.711 kJ/mol.

On to GGGGTCACGTGGTGCT, for which the “relative binding free energy” value was found to be 0.753 kJ/mol.

As for TGTTGCACGTGTGGAC, the “relative binding free energy” value was -0.0837 kJ/mol.

Take GGTTACACGTGTGAGA: the “relative binding free energy” value was found to be 1.13 kJ/mol.

Regarding AAGTGCACGTGACGTG, the “relative binding free energy” value amounted to 0.753 kJ/mol.

Regarding TCTATCACGTGGGAAG, the “relative binding free energy” value worked out at 0.628 kJ/mol.
